Results from PubChem BioAssay AID1346428 (National Center for Advancing Translational Sciences (NCATS), 2018).
Values joined by “and” are separate entries in the source; they are usually repeats but may differ in a detail not shown here. Equal values may be shown once. The campaign covered roughly 48,000 compounds. About 1,200 (2.5%) were called active. Inconclusive results (about 2%) are left out.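 The calls were made as follows: active = activation of at least 60% and not above a set upper limit (about 1 call in 100 departs from these limits); inconclusive = activation of 40% to 60%, or above that upper limit; inactive = activation under 40%.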 Some of the results follow.

Molecular target: Probable G-protein coupled receptor 32 (Homo sapiens) (UniProt O75388)
Assay: qHTS for Agonists of Human Resolvin D1 Receptor DRV1; also: 0% is about no effect
Conditions: CHO-K1 GPR32 beta-arrestin PathHunter luminescence, 90 min; at 76.9 µM; hits give high values; zero percent set by DMSO-only wells
Summary of the method: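 Cells are plated overnight, treated with compounds in DMSO for 90 minutes at 37 °C, and developed with PathHunter detection reagent for 1 hour before luminescence is read; signal reflects beta-arrestin binding to GPR32 in engineered CHO-K1 cells.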

Sequence of UniProt O75388 (O75388 whole entry, looked up): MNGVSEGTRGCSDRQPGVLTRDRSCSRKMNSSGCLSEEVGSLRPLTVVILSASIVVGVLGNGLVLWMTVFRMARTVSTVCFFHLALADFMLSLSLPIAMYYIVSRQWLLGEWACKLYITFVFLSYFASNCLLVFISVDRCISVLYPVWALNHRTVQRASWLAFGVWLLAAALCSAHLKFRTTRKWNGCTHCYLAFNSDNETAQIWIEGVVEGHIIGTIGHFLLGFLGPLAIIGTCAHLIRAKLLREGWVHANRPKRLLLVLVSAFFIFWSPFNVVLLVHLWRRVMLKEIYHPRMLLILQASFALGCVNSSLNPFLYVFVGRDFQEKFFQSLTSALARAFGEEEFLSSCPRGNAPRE

Row | Structure (SMILES) | activation
1 | COc1ccc(C(CC(=O)Nc2ccc(C)cn2)N2Cc3ccccc3C2=O)cc1OC (stereo not given) | inactive: -8.11%
2 | COC(=O)c1c(C)oc2ccc(N(C(=O)c3ccncc3)S(=O)(=O)c3cc(C)c(C)cc3C)cc12 | inactive: -1.44%
3 | CCOC(=O)N1CCC(NC(=O)c2ccc3c(c2)N(Cc2cccc(C)c2)C(=O)c2ccccc2S3(=O)=O)CC1 | inactive: -9.39%
4 | COc1ccc(NC(=O)COCc2cc(-c3ccco3)on2)cc1 | inactive: -8.87%
5 | CCCCSc1nnc2n(-c3cccc(C)c3)c(=O)c3c4c(sc3n12)CCCC4 | inactive: -9.97%
6 | CC(=O)Nc1nonc1-c1nnc(SCc2ccc(F)cc2)n1C | inactive: -5.49%
7 | CCOC(=O)C1CCN(C(=O)CSc2n[nH]c(-c3ccccc3)n2)CC1 | inactive: -10.9%
8 | Cc1cccc(OCc2nc(C#N)c(NCc3ccccc3Cl)o2)c1 | inactive: 45.5%
9 | Cc1ccc2nc(COc3ccc(NC(=O)COc4ccccc4F)cc3)cc(=O)n2c1 | inactive: -1.49%
10 | COc1ccc(NC(=O)CSc2nc3ccccc3[nH]2)cc1 | inactive: -10%
11 | Fc1ccccc1Oc1ncnc2c1oc1ccccc12 | inactive: -4.36%
12 | Clc1ccc(-c2csc(=Nc3ccccc3)n2Cc2ccc3c(c2)OCO3)cc1 | inactive: -6.37%
13 | CCCCC(CC)CNC(=O)CCCc1nnc2n(CCC)c(=O)c3sccc3n12 (stereo not given) | active: 80.4%
14 | Cc1ccc(NC(=O)CSCn2nnc3c(=O)[nH]c(Cc4ccc(F)cc4)nc32)c(C)c1 | inactive: -7.57%
15 | Cc1ccc(C)c(N2CCN(C(=O)Cn3c(=O)c4cccn4c4ccc(F)cc43)CC2)c1 | inactive: -15%
16 | Cc1cc(C)c2nc(NC(=O)c3ccc(S(=O)(=O)N4CCCC4)cc3)sc2c1 | inactive: 10.8%
17 | COc1ccc(-c2cc3nc(C)c(CCC(=O)N4CCN(c5ccccc5)CC4)c(C)n3n2)c(OC)c1 | inactive: 2.04%
18 | Cc1c(CC(=O)NCc2ccccc2)c(=O)oc2c(C)c(O)ccc12 | inactive: 31.7%
19 | Cc1cccc(N2CCN(C(=O)c3ccc4c(c3)N(Cc3ccccc3F)C(=O)c3ccccc3S4=O)CC2C)c1 (stereo not given) | inactive: 6.83%
20 | COc1cc2c(=O)c(C(=O)c3ccc(C)c(C)c3)cn(Cc3ccccc3)c2cc1OC | inactive: 6.72%
21 | CCOc1cc(C2C(C(=O)OC)=C(C)NC3=C2C(=O)c2ccccc23)c(Br)cc1OC (stereo not given) | inactive: -21.3%
22 | CCOCCCNC(=O)Cn1nc(C)n2c(cc3cc(C)ccc32)c1=O | inactive: -1.49%

Row | Structure (SMILES) | activation
23 | CCCCN(CCCNC(=O)CN1N=C(c2ccccc2)CCC1=O)c1ccccc1 | inactive: -33.2%
24 | O=C(COc1ccccc1Cl)Nc1nc2c(s1)CCCC2 | inactive: -21.1%
25 | COc1cccc(C(=O)Nc2cc(-c3cn4cccnc4n3)ccc2C)c1OC | inactive: 18%
26 | Cn1ncc(S(=O)(=O)Cc2ccccc2)c(Br)c1=O | inactive: -3.54%
27 | Cc1nc2ccccn2c(=O)c1NC(=O)c1c(F)cccc1F | inactive: -4.81%
28 | CC1CCN(C(=O)c2c(NC(=O)c3ccccc3F)sc3c2CCC(C(C)(C)C)C3)CC1 (stereo not given) | inactive: -24.7%
29 | Cc1ccc(OCC(=O)Nc2ccccc2C(=O)OCc2cc(=O)n3nc(C4CC4)sc3n2)cc1 | inactive: -6.6%
30 | O=C(c1cccs1)N(Cc1cccnc1)c1nc2ccc(F)cc2s1 | inactive: -20.6%
31 | Cc1ccc(CN(Cc2ccco2)C(=O)COc2c(C)cc(C)cc2C)cc1 | inactive: 8.73%
32 | CCCN(CCC)CCCNC(=O)C1CCC(CNS(=O)(=O)c2cccc3nsnc23)CC1 (stereo not given) | inactive: -1.03%
33 | CNCCCC12CCC(c3ccccc31)c1ccccc12 | inactive: 43.5% and inactive: -11%
34 | CCn1cc(S(=O)(=O)c2ccc(OC)cc2)c(=O)c2cc(F)c(N3CCC(C)CC3)cc21 | inactive: -7.23%
35 | CCCCNS(=O)(=O)c1ccc2nc(-c3cccnc3)cc(C(=O)NCCC)c2c1 | inactive: -13%
36 | Oc1ccc(-c2nc3ccccn3c2Nc2ccc3c(c2)OCCO3)cc1 | inactive: -12.4%
37 | COCCCNC(=O)c1ccc2nc(Cc3ccc(OC)cc3)oc2c1 | inactive: -10.1%
38 | NCCCCCc1nnc(SCc2ccc(F)cc2)o1 | inactive: -2.7%
39 | NCCNc1cccc2ccccc12 | inactive: -12.5%
40 | CCCc1nn2c(=O)cc(COC(=O)c3cccc(NC(=O)CCc4ccccc4)c3)nc2s1 | inactive: -5.88%
41 | COCCNC(=O)CSc1c2c(nc3cc(Cl)ccc13)CCCC2 | inactive: -9.55%
42 | CCOc1ccc(CNC(=O)C2CCN(S(=O)(=O)N3CCCCC3)CC2)cc1 | inactive: 0.0153%
43 | CCOCCCNC(=O)C(c1ccc(OC)cc1)N(Cc1cccs1)C(=O)c1ccccc1O (stereo not given) | inactive: -10.2%
44 | COc1ccc(CCNC(=O)c2cnc3sc(N4CCCCCC4)nn3c2=O)cc1OC | inactive: 0.321%

Row | Structure (SMILES) | activation
45 | CC1=C(C(=O)Nc2cccc(C)c2C)C2(CCCCC2)OC1=O | inactive: -19.7%
46 | CC1=C(C(=O)Nc2c(C)cc(C)cc2C)C2(CCN(C(C)C)CC2)OC1=O | inactive: -9.46%
47 | CC(C)NC(=O)CSc1nc2ccccc2nc1N1CCCCC1 | inactive: 12.9%
48 | COc1ccccc1N1CCN(CCCNC(=O)c2cnn(-c3ccccc3Cl)c2C2CCN(C(=O)OC(C)(C)C)CC2)CC1 | inactive: -18.9%
49 | Cc1ccc(Sc2ccc(N3CCCC(C(=O)Nc4ccc(Cl)cc4)C3)nn2)cc1 (stereo not given) | inactive: 23.3%
50 | CC(C)CCN1C(=O)N(c2ccccc2)C(=O)C1CC(=O)Nc1ccc(Cl)cc1 (stereo not given) | inactive: -19.9%
51 | COc1cc(OC)c(NC(=O)Nc2nnc(N(C)C3CCCCC3)s2)cc1Cl | inactive: 0.158%
52 | CCOc1cccc2sc(N(Cc3cccnc3)C(=O)c3ccco3)nc12 | inactive: -6.64%
53 | Cc1ccc(N2CC(NC(=O)Cc3cccs3)CC2=O)cc1 (stereo not given) | inactive: -5.37%
54 | COc1ccc(C(c2c(C)n(C)n(-c3ccccc3)c2=O)c2c(C)n(C)n(-c3ccccc3)c2=O)cc1O | inactive: -3.81%
55 | COc1ccc(-c2cc3c(=O)n(CC(=O)Nc4ccccc4C(F)(F)F)ccn3n2)cc1OC | inactive: 29.5%
56 | CC1CCN(CC(=O)N2CCCc3c2c(=O)oc2ccc(OCc4ccccc4)cc32)CC1 | inactive: 19.8%
57 | CC(=O)c1ccc(NC(=O)CN(C)S(=O)(=O)c2cc3c(cc2C)NC(=O)CO3)cc1 | inactive: -3.18%
58 | Cc1c(C(=O)Nc2ccc(Br)cc2F)oc2ccc(S(=O)(=O)N3CCCCC3)cc12 | inactive: 4.09%
59 | Cc1ccc(CCNC(=O)c2cc3c(s2)-c2ccccc2OC3)cc1 | inactive: 8.69%
60 | Cc1cccc(NC(c2cccc(F)c2)c2ccc3ccc(C)nc3c2O)n1 (stereo not given) | inactive: -51.3%
61 | NCCNCCNCCN | inactive: 3.97%
62 | CCCn1c(=N)c(C(=O)NC2CCCC2)cc2c(=O)n3cc(C)ccc3nc21 | inactive: -4.65%
63 | CC1CCC(NC(=O)c2ccc3c(c2)N(Cc2ccccc2F)C(=O)c2ccccc2S3)CC1 (stereo not given) | inactive: -14.2%
64 | CC1CCN(S(=O)(=O)c2ccc3c(c2)N(CC(=O)NCc2ccccc2Cl)C(=O)CS3)CC1 | inactive: -29.3%
65 | Cc1nc2ccc(S(=O)(=O)NC(C(=O)NCc3ccccc3Cl)C(C)C)cc2s1 (stereo not given) | inactive: 7.27%
66 | c1ccc(-c2cc(-c3ccccc3)c3c(n2)-c2ccccc2OC3)cc1 | inactive: 10.3%

Row | Structure (SMILES) | activation
67 | O=S(=O)(Nc1ccc(F)c(C(F)(F)F)c1)c1ccc(N2CCCCS2(=O)=O)cc1 | inactive: 9.53%
68 | COc1ccc(C2C(=O)N(C3CCC(C)CC3)CC(=O)N2Cc2ccc(C)cc2)cc1OC (stereo not given) | inactive: -29.8%
69 | CSc1ncc(Cl)c(C(=O)NCc2ccc(C)cc2)n1 | inactive: -1.65%
70 | CCCCNc1ccc(-c2nc(-c3ccccc3)no2)cc1[N+](=O)[O-] | inactive: -15%
71 | O=C(Nc1cccc(C(F)(F)F)c1)C1CCCN(S(=O)(=O)c2cccc3nsnc23)C1 (stereo not given) | inactive: -3.72%
72 | Cc1ccc2c(CC(=O)N3CCN(c4cccc(Cl)c4)CC3)coc2c1 | inactive: -24.8%
73 | Cc1cc(C)cc(NC(=O)Cn2nnc(C(=O)NCCc3ccccc3)c2N)c1 | inactive: 1.1%
74 | COc1ccc(OC)c(CNS(=O)(=O)c2c(C(=O)N3CCC(C)CC3)c(C)n(C)c2C)c1 | inactive: -17%
75 | CCOc1ccc(C(=O)NCCc2sc(-c3ccc(C)cc3)nc2C)cc1 | inactive: 41.4%
76 | Cc1ccc(CCNC(=O)c2ccc(CS(=O)(=O)c3ccc(Br)cc3)o2)cc1 | inactive: 34.8%
77 | CCOc1ccccc1NC(=O)CSc1c(C)cnc2c1c(=O)n(C)c(=O)n2C | inactive: -4.76%
78 | COc1cc(Nc2nc(SCc3ccccc3F)nc3ccccc23)cc(OC)c1 | inactive: -28.2%
79 | COc1ccc(NC(=O)C2=C(C)Nc3nc(SCc4ccc(C)cc4C)nn3C2c2cccc(OC)c2OC)cc1 (stereo not given) | inactive: 11%
80 | CCOc1ccc(CNC(=O)Cn2nc(C)c3nn(-c4ccc(Cl)cc4)c(C)c3c2=O)cc1 | inactive: -12.8%
81 | COc1cc(-c2ccno2)ccc1S(=O)(=O)N1CCN(c2cccc(Cl)c2)CC1 | inactive: -4.34%
82 | Cc1[nH]c(=O)[nH]c(=O)c1S(=O)(=O)Nc1cccc(Cl)c1C | inactive: -6.25%
83 | COc1ccccc1NC(=O)c1sc2nc(-c3cc4cc(Cl)ccc4oc3=O)[nH]c(=O)c2c1C | inactive: 0.705%
84 | Cc1ccc(CNC(=O)c2oc3ccc(S(=O)(=O)N4CCCC(C)C4)cc3c2C)cc1 (stereo not given) | inactive: 14.3%
85 | Cc1oc2ncnc(N3CCCCC3)c2c1C(=O)NCC1CCN(Cc2ccccc2F)CC1 | inactive: -13.6%
